Results on six molecules are retold here after paper PMC2082042.

For test [1], the target named is T1, TBP-N (TBP N terminus clone, amino acids 1-136), Gal4 DNA-binding domain bait (mouse) (UniProt P29037).
T1 sequence: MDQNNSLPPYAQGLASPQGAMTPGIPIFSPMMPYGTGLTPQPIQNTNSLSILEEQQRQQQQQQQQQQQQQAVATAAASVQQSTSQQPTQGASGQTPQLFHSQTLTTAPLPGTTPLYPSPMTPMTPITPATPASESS
Put plainly: two-hybrid; HAP1 deletion series (pPC86) with pDBLeu-mTBP-N, pDBLeu-mTBP-C or empty pDBLeu in MaV203; three clones of each; SC-L-W-H + 75 mM 3AT and SC-L-W-H-U (legend of Fig. 4: SC-L-W-H + 50 mM 3-AT).

Test [2] concerns the target T2, TBP-C (TBP_(CORE) clone, amino acids 134-316), Gal4 DNA-binding domain bait (mouse) (UniProt P29037).
T2 sequence: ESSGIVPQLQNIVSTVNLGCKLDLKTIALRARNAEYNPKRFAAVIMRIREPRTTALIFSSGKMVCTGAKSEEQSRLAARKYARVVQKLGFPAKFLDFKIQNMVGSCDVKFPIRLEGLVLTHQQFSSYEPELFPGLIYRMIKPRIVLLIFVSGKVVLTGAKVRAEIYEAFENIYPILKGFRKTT
Described as above.

Test [3] addresses T3, HA-tagged full-length mouse TBP (pCMV-HA-TBP-FL) (mouse) (UniProt P29037).
T3 sequence: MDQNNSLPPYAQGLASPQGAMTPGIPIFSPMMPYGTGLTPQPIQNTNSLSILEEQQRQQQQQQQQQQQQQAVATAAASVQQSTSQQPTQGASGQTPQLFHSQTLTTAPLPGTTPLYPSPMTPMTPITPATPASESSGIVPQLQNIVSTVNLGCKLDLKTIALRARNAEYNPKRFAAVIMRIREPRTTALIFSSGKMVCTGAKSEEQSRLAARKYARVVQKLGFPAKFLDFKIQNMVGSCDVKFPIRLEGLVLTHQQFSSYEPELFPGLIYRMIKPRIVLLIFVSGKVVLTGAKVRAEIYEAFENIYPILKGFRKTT
Put plainly: co-IP; 293 cells co-transfected with pCMV-HA-TBP-FL and pCMV-MYC-HAP1; lysate precipitated with anti-TBP NC rabbit polyclonal antibody or a non-specific antibody, washes with 300 mM NaCl, 2% TX-100; blot with anti-MYC.

Test [4] addresses T4, TBP-FL (full-length mouse TATA-binding protein), Gal4 DNA-binding domain bait (mouse) (UniProt P29037).
T4 sequence: T3 sequence
The test can be described thus: two-hybrid; library screens: TBP-FL as Gal4 DBD bait (pDBLeu) against mouse placenta + pregnant uteri cDNA prey libraries in pPC86 (screen 1 oligo(dT)-primed, screen 2 random-primed); S. cerevisiae MaV203; SC-L-W-H-U, SC-L-W-H + 3-AT and LacZ.

In test [5] the target is T1, TBP-N (TBP N terminus clone, amino acids 1-136), Gal4 DNA-binding domain bait (mouse). Put plainly: two-hybrid; two-component tests: TBP baits (pDBLeu) with the HAP1 random-primed or oligo(dT)-primed prey clone (pPC86) co-transformed into MaV203; streaked on SC-L-W, SC-L-W-H + 75 mM 3-AT and SC-L-W-H-U.
The target in test [6] is T2, TBP-C (TBP_(CORE) clone, amino acids 134-316), Gal4 DNA-binding domain bait (mouse). Described as above.
Test [7] addresses T4, TBP-FL (full-length mouse TATA-binding protein), Gal4 DNA-binding domain bait (mouse). The description is as above.
Test [8] deals with T5, FLAG-tagged GFP-TBP fusion protein (pFLAG-CMV-GFP-TBP-FL) (mouse) (UniProt P29037).
T5 sequence: T3 sequence
Put plainly: co-IP; COS-7 cells co-transfected with pFLAG-CMV-GFP-TBP-FL or pFLAG-CMV-GFP and pCMV-MYC-HAP1-B(155–582); lysate precipitated with anti-FLAG M2 or a non-specific antibody, washes with 300 mM NaCl, 2% TX-100; blot with anti-MYC.

These are yes or no findings as the source states them, for the method shown. For part of these data: In cells and extracts the contact can be indirect. Some binding calls cover weakened binding; strength is not graded here. For part of these data: Where a sequence is shown, tags or fusion partners need not be part of it.

B1: HAP1 amino acids 473–582, Gal4 activation domain prey (domain or fragment, UniProt O35668 473-582)
chain: DLKPPEDFEAPEELVPEEELGAIEEVGTAEDGQAEENEQASEETEAWEEVEPEVDETTRMNVVVSALEASGLGPSHLDMKYVLQQLSNWQDAHSKRQQKQKVVPKDSPTP
B1: the figures for the binding entry in test [1] and in test [2] were “no binding” and “binds”, respectively.

B2: HAP1 amino acids 157–261, Gal4 activation domain prey (domain or fragment, UniProt O35668 157-261)
chain: ERDLNTAARIGQSLVKQNSVLMEENNKLETMLGSAREEILHLRKQVNLRDDLLQLYSDSDDDDDEEDEEDEEEGEEEEREGQRDQDQQHDHPYGAPKPHPKAETA
As to B2, the binding result in test [1] is “no binding”; in test [2] it was “binds”.

B3: MYC-tagged HAP1-B_(155–582) (pCMV-MYC-HAP1), expressed in 293 cells (domain or fragment, UniProt O35668 155-582)
chain: EKERDLNTAARIGQSLVKQNSVLMEENNKLETMLGSAREEILHLRKQVNLRDDLLQLYSDSDDDDDEEDEEDEEEGEEEEREGQRDQDQQHDHPYGAPKPHPKAETAHRCPQLETLQQKLRLLEEENDHLREEASHLDNLEDEEQMLILECVEQFSEASQQMAELSEVLVLRLEGYERQQKEITQLQAEITKLQQRCQSYGAQTEKLQQMLASEKGIHSESLRAGSYMQDYGSRPRDRQEDGKSHRQRSSMPAGSVTHYGYSVPLDALPSFPETLAEELRTSLRKFITDPAYFMERRDTHCREGRKKEQRAMPPPPAQDLKPPEDFEAPEELVPEEELGAIEEVGTAEDGQAEENEQASEETEAWEEVEPEVDETTRMNVVVSALEASGLGPSHLDMKYVLQQLSNWQDAHSKRQQKQKVVPKDSPTP
Take B3: the binding result in test [3] is listed as “binds”.

B4: HAP1-B_(155–582) (random-primed mouse HAP1 clone), Gal4 activation domain prey (domain or fragment, UniProt O35668 155-582)
chain: B3 chain
Consider B4, for which the binding result in test [4] is given as “binds”; in test [5], “no binding”; in test [6], “binds”; in test [7], “binds”.

B5: MYC-tagged HAP1-B_(155–582) (pCMV-MYC-HAP1-B_(155–582)), expressed in COS-7 cells (domain or fragment, UniProt O35668 155-582)
chain: B3 chain
For B5, the binding result in test [8] was “binds”.

B6: HAP1_(238–479), Gal4 activation domain prey (domain or fragment, UniProt O35668 238-479)
chain: QRDQDQQHDHPYGAPKPHPKAETAHRCPQLETLQQKLRLLEEENDHLREEASHLDNLEDEEQMLILECVEQFSEASQQMAELSEVLVLRLEGYERQQKEITQLQAEITKLQQRCQSYGAQTEKLQQMLASEKGIHSESLRAGSYMQDYGSRPRDRQEDGKSHRQRSSMPAGSVTHYGYSVPLDALPSFPETLAEELRTSLRKFITDPAYFMERRDTHCREGRKKEQRAMPPPPAQDLKPPED
As for B6, the binding result in test [1] and in test [2] was “no binding” throughout.
